± gives the standard deviation of the averaged measurements. Some of the results follow.

This assay concerns PfAP2-I AP2 domain 3 (GST-tagged). In words: gcPBM binding intensity (ln(normalized median fluorescence intensity)); higher = stronger DNA binding. The method in brief: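 In this array assay, P. falciparum DNA-binding domains with a GST tag, expressed in E. coli, were applied for 1 h to primer-extended double-stranded 36-bp intergenic genomic probes and negative controls on an Agilent 4 × 180k array. Bound protein was visualised with Alexa488 anti-GST antibody at 488 nm. Binding intensity is the highest Masliner-normalised natural-log median intensity across replicate spots of either probe orientation.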
As for “TTTCATAAGAGAAAGACACACAAATATATATTTATT [CACACA_site827]”, the “gcPBM binding intensity (ln)” value was 7.39 ± 0.59.
In the case of “TATCCATGCATTTACACACACACAAAAAAAAATTCT [CACACA_site4100]”, the “gcPBM binding intensity (ln)” value came to 8.48 ± 0.39.
With “ATATATATGCATAATACACACATCATATAATTAACC [CACACA_site1643]”, the “gcPBM binding intensity (ln)” value came to 8.37 ± 0.57.
Then “TTCATACATAGAAAATGTACATATATATATATATAT [XGTACX_site1895]”, with 9.29 ± 0.3; and “AAGATATGTACTAATACACACACATATATATATATA [CACACA_site8249]”, with 9.42 ± 0.35.
Take “AAAAAAAAAAACAATACATGCATAATATTAATAAAA [TGCATGCA_site913]”: the “gcPBM binding intensity (ln)” value stood at 7.79 ± 0.57.
In the case of “TACAAAATATTTTACACACACATATAAATACAGATA [CACACA_site5447]”, the “gcPBM binding intensity (ln)” value stood at 7.99 ± 0.34.
Then “AAAGAAAAAAAATAATGTACTTATGTATTTCAGAAA [XGTACX_site3570]”, with 7.49 ± 0.49; and “TGTTTTGTTGTGTATTGTACTAATATAAATATATAA [XGTACX_site1852]”, with 8.02 ± 0.42; and “TAAAAAAACGCACTCGTACACACATATTTTCTTTCT [CACACA_site3090]”, with 9.225 ± 0.049.
As to “TTTTATGATTGACACACACACAAAAAAAAAAAAAAA [CACACA_site7860]”, the “gcPBM binding intensity (ln)” value is 8 ± 0.61.
For “TATATTTGGAAAACATGTACATATAACAATATGTAA [XGTACX_site324]”, the “gcPBM binding intensity (ln)” value was 7.7 ± 0.46.
In the case of “AATAAAAAAGGAAACAAATTAATATATATATATATA [CACACA_negctrl_site467]”, the “gcPBM binding intensity (ln)” value is 9.38 ± 0.28.
As for “AAAAAAAGAAATAATAAAAAATATATATATATATAT [GTGCAC_negctrl_site702]”, the “gcPBM binding intensity (ln)” value was 9.54 ± 0.36.
Then “CGTACATAATTTTAATCACACACAAACAAACACATA [CACACA_site7947]”, with 8.125 ± 0.078; and “AAGACACAAAAACACACACACATACATACATACATA [CACACA_site454]”, with 8.13 ± 0.66; and “TATGTTGATGATGATAGTACATATGAGTTCAAAAAA [XGTACX_site7712]”, with 7.97 ± 0.71.
Turning to “TAAATATTTATAAACACACAAATATTTATATTTATA [CACACA_site6166]”, the “gcPBM binding intensity (ln)” value came out at 7.41 ± 0.4.
Then “TTTATTTATTAATACACACACACACGCCCACAAAAT [CACACA_site6253]”, with 8.88 ± 0.099.
In the case of “AGGGACATATATATCACACACAAAAATTAGTCCCTT [CACACA_site2778]”, the “gcPBM binding intensity (ln)” value came out at 7.66 ± 0.64.
Take “AAATAGAGAAATACAAGTACATATCAAACCAATCTA [XGTACX_site2756]”: the “gcPBM binding intensity (ln)” value came out at 7.61 ± 0.45.
Then “TAAAAATATAGGTATACACACATATAAATATAAATA [CACACA_site7785]”, with 7.69 ± 0.41.
For the sequence “CTTATACATAAATTTTGTACACACAAAAAAAAAAAA [XGTACX_site2665]”, the “gcPBM binding intensity (ln)” value came out at 8.31 ± 0.58.
Then “ATAAATATAAATATATGTACATATATATATATATAT [XGTACX_site7433]”, with 9.38 ± 0.18; and “GATTTTAAAATAATTACACACTTGATTATGTCCAAA [CACACA_site3491]”, with 7.78 ± 0.42; and “GAAAGGGCAGGAACTATTAATACACTGATCGATAAG [CACACA_negctrl_site1458]”, with 8.11 ± 0.66.
Then “AATTATAGCTGTATCTGTACGCATTTATTTATAGAC [XGTACX_site5959]”, with 8.21 ± 0.2; and “TTAAATAATATTAGCCGTACAATTTAAAGATAATAA [XGTACX_site8503]”, with 7.66 ± 0.48.
Then “TTTAATACTTTATATGCATGCAGAGAAAAATGCTTG [TGCATGCA_site286]”, with 7.76 ± 0.55.
Take “ATGAATATAATGAAGTGTACATAAAAATAATAAATA [XGTACX_site2481]”: the “gcPBM binding intensity (ln)” value stood at 7.97 ± 0.42.
“ATACATATAGGATGCACACATAATTCAAATACAATA [CACACA_site651]”: the “gcPBM binding intensity (ln)” value amounted to 8.27 ± 0.46.
On to “TTTGAAATATATTTAGTGCATATATATTGATTATAA [GTGCAC_site9604]”, for which the “gcPBM binding intensity (ln)” value was determined as 10.4 ± 0.34.
Then “CAATTTTGCCCTTCCTGTACATATATTGAAAAATAT [XGTACX_site6388]”, with 8.46 ± 0.15; and “ATCTAGTACATACATACACACAACAATGTTATGAGA [CACACA_site3989]”, with 7.95 ± 0.4.
Under “ATATTAAACAGACACACACACATATATTTATTTATA [CACACA_site7564]” stands 7.88 ± 0.52; under “TATAGCATATCTCACACACACATAATGAATATTATA [CACACA_site5877]”, 7.58 ± 0.59.
Turning to “TATAGCTATGTATTCACACATAATATAAACTTTAAT [CACACA_site5889]”, the “gcPBM binding intensity (ln)” value stood at 7.54 ± 0.43.
Under “AAAATGAACTCACGAGCACACACACCCATATATATA [CACACA_site8247]” stands 8.24 ± 0.68; under “TGTATTATATAAAATTGTACATGCGAATTGTATAAC [XGTACX_site902]”, 8.02 ± 0.39.
With “ATTGTTTTATATAGAACACACATAAAAATATATATG [CACACA_site1193]”, the “gcPBM binding intensity (ln)” value is 7.72 ± 0.33.
Then “ATAAAATGAAATATATATGTGTATGCTTAACTTGTT [CACACA_negctrl_site431]”, with 7.58 ± 0.74; and “AAAGGATGTAATATAAACATATATATGTATATATAT [TGCATGCA_negctrl_site347]”, with 8.04 ± 0.66.
Then “TAATTTTTTTTAATAACACACATATATATATATATA [CACACA_site813]”, with 9.3 ± 0.33; and “TAATATTCCTTTTTAACACACATATGAACAAATAAA [CACACA_site153]”, with 7.87 ± 0.31; and “TAAAAATTTACATGTTGTACATATAATTATATAATC [XGTACX_site4577]”, with 7.82 ± 0.22.
On to “AGGCTGCCATATTATACACACATTTTTAAAAAAATT [CACACA_site3843]”, for which the “gcPBM binding intensity (ln)” value was found to be 8.02 ± 0.4.
As for “AAATATTACCATGTGAAAATTTTACTGCAACATGAA [TGCATGCA_negctrl_site609]”, the “gcPBM binding intensity (ln)” value amounted to 8.74 ± 0.14.
Regarding “TAAAATTCGAAAAATTGTACTATTTATATATCTGTA [XGTACX_site6478]”, the “gcPBM binding intensity (ln)” value turned out to be 7.36 ± 0.4.
“TAGTTAGGCCCTACATGTACATAATATATATTACTT [XGTACX_site1137]”: the “gcPBM binding intensity (ln)” value worked out at 8.15 ± 0.59.
For the sequence “ATCAACATTACATTTAGTACACATATATTTCTATGT [XGTACX_site4436]”, the “gcPBM binding intensity (ln)” value was 8.16 ± 0.36.
Take “CTAATTAATATTTGTACACACATATTTAACCTACTA [CACACA_site3191]”: the “gcPBM binding intensity (ln)” value amounted to 8.01 ± 0.38.
Under “TATATAAGTATAAAATGTACATAAAATTTTATGTTA [XGTACX_site2613]” stands 7.69 ± 0.35; under “ACAAAATGTAAATAAACACACATATTTATATTTATA [CACACA_site6719]”, 7.5 ± 0.32; under AATTCACCAAAAAAAGTGCATATTCAATATATATTA, 9.39 ± 0.15.
Regarding “AATAAAATATTATGTGCATGCTGTTTTATTTATTAA [TGCATGCA_site102]”, the “gcPBM binding intensity (ln)” value amounted to 7.75 ± 0.69.
Then “TTGGTGGATAAATTTACACACAATAATTTTCGTTCA [CACACA_site467]”, with 8.44 ± 0.18.
Under “ATAATTTCAATATTTAATATCATATATATATATTTT [GTGCAC_negctrl_site713]” stands 7.83 ± 0.34.
Under “TAAAACAAAACAAAAATAGGATTATATTCCTTTTTT [CACACA_negctrl_site1003]” stands 7.23 ± 0.59; under “ATATATATATATATATGTACATATGTGTATATAACT [XGTACX_site495]”, 9.4 ± 0.54.
In the case of “AAATAAAAAAATACCCAACACCATGCCAAATGTGAA [CACACA_negctrl_site411]”, the “gcPBM binding intensity (ln)” value was found to be 7.58 ± 0.66.
For “TTTTTTTTCTTTTTTTTTTTTTCAAAAGCTTATAAT [CACACA_negctrl_site1526]”, the “gcPBM binding intensity (ln)” value was determined as 7.63 ± 0.55.
Then “GTGTATTTGGTGCGCACACACATGCAAAAAGAAATA [CACACA_site4768]”, with 10.4 ± 0.39; and “TGTATAATCATATATACACACACATATATATATATA [CACACA_site8674]”, with 9.36 ± 0.44.
Turning to “TTATATAAAAAAAAATGTACATATAATTGGTAAATT [XGTACX_site5180]”, the “gcPBM binding intensity (ln)” value was 7.92 ± 0.6.
Under “AAAAATATTTAAAATACACACATATATATAATATAT [CACACA_site2006]” stands 7.61 ± 0.39; under “TTGAAAATAATATGAAGTACATTATTTTTTTTTAAT [XGTACX_site4499]”, 7.59 ± 0.49.
With “AAAACTTTCCATGTTTGTACATAAAATATAATAATT [XGTACX_site2716]”, the “gcPBM binding intensity (ln)” value was 7.71 ± 0.43.
Take “CTTGAAAGATTTTATTGTACTCATAAGATACATTTC [XGTACX_site3178]”: the “gcPBM binding intensity (ln)” value is 7.5 ± 0.3.
Under “TCATACAATATTAAATGTACATATATATATATATAT [XGTACX_site8828]” stands 9.04 ± 0.74; under “ATATTAAAGCCTTTTTGTACATATAAATAAACATAG [XGTACX_site4667]”, 7.95 ± 0.36.
Consider “ATTTTTTTTTTTTTTTTTCATTTTTTTTTTTTTTTT [CACACA_negctrl_site1204]”, for which the “gcPBM binding intensity (ln)” value worked out at 8.22 ± 0.35.
Under “TATATATTATATATATGTACATAATTCCATGTTTAG [XGTACX_site3943]” stands 7.78 ± 0.46.
In the case of “AACTCTTAAAAATAAACATGCAAATATTTACCTTCT [TGCATGCA_site986]”, the “gcPBM binding intensity (ln)” value amounted to 7.64 ± 0.76.
Turning to “TAAATAATTCTTTTAGTACACACGAATAAGCAGATA [CACACA_site305]”, the “gcPBM binding intensity (ln)” value turned out to be 7.99 ± 0.35.
Then “GTTACATACATATACACACACATATATATATATATA [CACACA_site901]”, with 9.16 ± 0.4; and “TAATTTTTATTCAAGAGTACACAAAAGATAACTAAA [XGTACX_site4060]”, with 7.9 ± 0.21.
Under “TAGATACCTATAGAAACATGCAATTGAATATATTTC [TGCATGCA_site402]” stands 7.6 ± 0.41; under “TTCTTACACGTTTGCACACTAAAATATATATATATA [CACACA_site434]”, 9.465 ± 0.021; under “TAAAAAAAATCATTCACACATATATGAAAAAAAAAA [CACACA_site5546]”, 7.46 ± 1.
Regarding “AAAAAATGAAAATATTCCAAAATAGAGGGAAATGTA [GTGCAC_negctrl_site572]”, the “gcPBM binding intensity (ln)” value was 7.85 ± 0.57.
Regarding “TATGTGATAACACGCACACAAATGTATTTAATTTAT [CACACA_site5435]”, the “gcPBM binding intensity (ln)” value was found to be 7.71 ± 0.4.
Then “CACAAAAATGTAATCACACATATATATATATATATA [CACACA_site5818]”, with 9.37 ± 0.46.
Under “CTTTTTTAAAATATTTAACACACAATTTTAATGCAT [CACACA_site9303]” stands 8.24 ± 0.29.
Then “AAAATTAGGAGACATGCATGTAACGATAAATATAAC [TGCATGCA_site148]”, with 8.02 ± 0.86.
As to “TTATATTTATATATTTGTACGTATGTATATAATTCA [XGTACX_site2993]”, the “gcPBM binding intensity (ln)” value turned out to be 7.67 ± 0.3.
With “ATTCTAATAATATATACACACACATATATATTTATA [CACACA_site8629]”, the “gcPBM binding intensity (ln)” value is 7.96 ± 0.35.
Under “ATATAAATATTTATTAGTACACATTAGTGTAGTTTT [XGTACX_site4493]” stands 7.91 ± 0.56.
Then “CTATATTATTTTTCTTGTACGTAGGAAATATAGCTA [XGTACX_site6176]”, with 9.56 ± 0.4.

These data come from the supplement of paper PMC11417369.
